This is one part of the list.
What follows are sequences tested on PfHDP1 homeodomain (GST-tagged) (assay: gcPBM binding intensity (ln(normalized median fluorescence intensity)); higher = stronger DNA binding).
Summary of the method: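 An Agilent 4 × 180k array of primer-extended double-stranded 36-bp intergenic genomic probes, with negative controls, was incubated for 1 h with GST-tagged P. falciparum DNA-binding domains expressed in E. coli. Alexa488 anti-GST antibody detected bound protein, scanned at 488 nm. Binding intensity is the highest Masliner-normalised natural-log median intensity across replicate spots of either probe orientation.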

Sequence | gcPBM binding intensity (ln)
TTGTGATTATTATATTGTACAATAAGTATTAAAGAA [XGTACX_site2753] | 7.23
ATATATAATACTACAGTGCAATATATTATATTTGTT | 8.63
TTCCTCTTAAAATATACACACTGATTTAAGAAAAAA [CACACA_site5770] | 6.42
AAATAAAAGTTCACCTGTACACACATATATATATGT [XGTACX_site3513] | 6.68
CATAAAATATAAAACACACACACATATATTTATATA [CACACA_site6247] | 7.04
TTTTTTTTTTTTTAGAGTACACACTTTTTTACATTT [XGTACX_site8159] | 6.44
TATATATATATATATATACACACTATATAATTCAAA [CACACA_site1023] | 9.47
TTAACATAGATATATACACACCAATGATGGCATTTA [CACACA_site6840] | 6.33
ATTATTTTGTTTATTACATGCAGGTGTATATTACAG [TGCATGCA_site723] | 6.77
GAGTATATTTATATTGCACACAATTTTTTTATTTTT [CACACA_site2644] | 10.5
TTAAATACTAAAAAGTGTACACATACATAAAAAATT [XGTACX_site6261] | 7.13
ATTATGTTAATAATATGTACATATATCTACATATAT [XGTACX_site7978] | 6.45
TGCATAAATTTATGCACACATAAAAAAAAAAAAAAA [CACACA_site2923] | 10.4
CAACTCTTATTTAATTATATGAATTAATTTATATGA [CACACA_negctrl_site200] | 5.88
CATAAATGTCTCACATGTACATATGCATTTTTAAAA [XGTACX_site3194] | 6.69
TATATATAATATTGCACACAAAATTAAAAGTAAATA [CACACA_site19] | 10.3
TGAACTTTAAACCCTGAACACACACTAATACACCCA [CACACA_site7970] | 7.15
AATATGTCATATATGTGTACATATGCACAGATATTA [XGTACX_site951] | 9.04
ATAAAAAGAAATCCAATACACACCTTCAAAATGGGT [CACACA_site1622] | 6.72
TCATTCAGTTTTATCACACACAATCAAACATATATA [CACACA_site2742] | 6.75
AAACATTTATCAATGAATCTTTTAATAAGTGTAAAG [XGTACX_negctrl_site80] | 6.32
ATTCAATATTTATACACACACACTTTTAATAATTAA [CACACA_site7725] | 7.16

Sequence | gcPBM binding intensity (ln)
ATATATATAATAAATACACACATTTATATAGATAAA [CACACA_site3254] | 6.67
TCAACATTCATTGGAAGTACTCACTCCCATATAATA [XGTACX_site5211] | 6.04
TATTTTTTTAGATATACATGCAAAAACAGAAGAAAT [TGCATGCA_site283] | 6.73
AATATAAGGATATATACACACATAAATACATACATA [CACACA_site7859] | 6.62
AAAATATTATCTAATTGTACTTATATAACTATATAT [XGTACX_site5699] | 6.08
TTGAAATGCATGAACACACACAGCTATAAATGCATA [CACACA_site968] | 6.48
ATACTAAGGAGAAAAGAAAAGTGAATTTATTCTATA [CACACA_negctrl_site1792] | 5.89
AAATTTATGAACCTAGTGCAGAAATTAAAAAGATGA [GTGCAC_site9396] | 7.56
TAATAAATAAATGACACACACACACCCAAAAAAAAA [CACACA_site2623] | 6.77
AGCTATGTATTCTACACACACATACACCCATATATA [CACACA_site5827] | 6.97
TTATTAACCTAAATTAGTACATATAATATAAAAAAT [XGTACX_site8661] | 6.59
TATATATAAACAAAATGTACATATTTGAGATACCCT [XGTACX_site2195] | 7.12
AAACCGTGGGAGCACACACACACACGCGCACATATA [CACACA_site6288] | 7.5
TGTTTCTAAAAAAAAGGTACACATATATATAATATA [XGTACX_site3217] | 6.33
GTAACCCACCAAAATGCACACATTAAAAAAAAAAAA [CACACA_site1046] | 9.93
AATACCGGAAAGCAAACACACATTTGAAAACCATAA [CACACA_site7761] | 6.58
TATATATTATATATATGTACATATTTATTTTATTTT [XGTACX_site6989] | 6.57
AAAAAATTTCAAATGACATAATGTAATTTCCCTTTT [GTGCAC_negctrl_site673] | 5.96
TTTATCAAAATAAATGCACACAAATTGCACATATCT [CACACA_site8281] | 10.9
ATAGTTTATACAAATAGTACGCACAAAAAAAAATAA [XGTACX_site6727] | 7.03
CAATACTATTATTATAGTACGTATAAAATTATATAT [XGTACX_site4950] | 6.44
TACAAAAAAGAAGATATTCAAACAAAAACAAAAAAA [CACACA_negctrl_site1126] | 6.56

Sequence | gcPBM binding intensity (ln)
AGTAAACGATGATGTTGTACAAAAAGGATAATTTAA [XGTACX_site6698] | 6.84
TTTTTATTTTTTATGTAATTTAAATAATTATTCAAA [CACACA_negctrl_site1549] | 6.05
GTATTCTTCTCTCCGTGTACATATATATGTATATAT [XGTACX_site803] | 7.66
TATATATATATGCTACGTACATATATATTATATATA [XGTACX_site7894] | 9.01
TATCATAATAGACACAGTACATATATGTCTTAAATT [XGTACX_site8775] | 6.32
ACACATACATACATATGTACATATATACATATATAC [XGTACX_site5559] | 6.8
ATAATGTTTTATAATACACACATTATATATATAAAT [CACACA_site6101] | 6.91
GATTACAAAAAAAATACACACAAAAAAAAAAAGGAA [CACACA_site2096] | 6.51
ATATTTATGTAAAAAAGTACATACAATTATATATGT [XGTACX_site3750] | 6.26
AATATCTTAGTGGATACACACATATAAATGTGTATT [CACACA_site6367] | 6.26
TTGAGCATAAAATTTGGAAACCTCAATCGGACAAAA [GTGCAC_negctrl_site84] | 7.91
CTTTCAATTTTTTTCTGTACCAATAAAAAATATAAA [XGTACX_site2120] | 6.4
GATATGAATATAGGTTGTACTATATATAAAGTATGT [XGTACX_site1877] | 6.6
AACGGGGGTAGTTTTATGCACACGTTTATTAATGCT [CACACA_site3173] | 9.56
TATATGTTAATTTTTTTTTTTTTTTTTTTTTTTATA [CACACA_negctrl_site62] | 5.66
AAAGTACAAGTATAATCACACGTGTCTATTATATAC [CACACA_site4507] | 6.72
ACATGAATTTATATGTGTACTAACTATATTCTTAAA [XGTACX_site5966] | 6.02
TATATACAATATAGGTGTACATTTTTTTATCTATTT [XGTACX_site8431] | 6.56
TCTGGCATATAATATTGTACACATATATATATATAT [XGTACX_site8182] | 9.21
TATCTGTATTTATTCACACATATAAAATATAATTAA [CACACA_site5560] | 6.36
ATGAATAAATAGGTCACACACAAATATTTATAAATA [CACACA_site7186] | 6.99
TCTTATATATGCTTAAATATATTATATTTATTTGAA [CACACA_negctrl_site1757] | 6.54

Sequence | gcPBM binding intensity (ln)
TTATTTATGATATATACACACTAACATTATTTATCC [CACACA_site6720] | 6.56
ATCATATGTATGCATACACACAAAAAATTATATATA [CACACA_site398] | 6.86
TATAATGATATAACAACACACATGTATGTATTATTA [CACACA_site230] | 6.23
ATAATATATTTATGTTGTACAAGGAAAATTTTGAAA [XGTACX_site3472] | 7.63
GAAATGGAAAAATATACATGCGCATATAAATTAATA [TGCATGCA_site834] | 7.08
TTTTTGATGAAATATTATTTTCCTGACTTGGATTAA [CACACA_negctrl_site148] | 6.27
TGGAGGATAGTTCACAGTACCCAGAAACTCTACGGA [XGTACX_site2560] | 6.14
AACCATAAATAATTATGTACTAAAAAAAATATATAT [XGTACX_site3415] | 6.7
CTGAATGTATATATTTGTACATATATATATATATAT [XGTACX_site5557] | 9.36
TTTTTTTTTTTTAATTAACACACATAAATATATATA [CACACA_site9077] | 6.43
GGGTATAATAAAAGCACACACAAAGATATAAATATA [CACACA_site3308] | 6.78
AAAAAAAAAAAACACGCATGTACATAAAAATAATCA [TGCATGCA_site142] | 6.52
TTAAAATCTTGAAAAGTGCATTATCATTTTGTAACG [GTGCAC_site9447] | 7.99
TATAATGATGATGATAGTACGTATGAGTTCAAAAAA [XGTACX_site3656] | 6.57
TATATATTTATATATGCATGTACATTTTTATTTATT [TGCATGCA_site1048] | 6.65
TTTTTAATATATAAAGATAATAATAAATAAAATTCA [CACACA_negctrl_site657] | 5.97
AAAGAAATGAAATATACACACATACCTATATACATA [CACACA_site7817] | 6.63
ATATAAAACAACGGGTGTACAAAAAAATAAATAATA [XGTACX_site4094] | 6.92
TATAGATACCTATACACACACACACGGACATATATA [CACACA_site7585] | 7.01
TTTTTCTTCTGCATTATGCACACTATAATTCGTTAA [CACACA_site2837] | 10.2
TTTTTATGGACTATGGTGCATTATATATAAATGAAA [GTGCAC_site9557] | 10.3
AGTATACACAGACACACACACACATATATATATATA [CACACA_site8510] | 9.2

From the supplement of paper PMC11417369
